For 106 compounds, z-score results are on record in PubChem BioAssay AID488969 (Vanderbilt High Throughput Screening Facility, 2010).

Whole data set: some 110,000 compounds, median “z-score” near -0.1, cut for the highest 2% near 2. This is one part of the list. Activity calls are given as the source filed them.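 How the source made its calls: active means z-score in the third read window above 3 or below -3; inactive means the rest.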

For this assay, the target named is Metabotropic glutamate receptor 8 (Rattus norvegicus) (UniProt P70579). Description: mGluR8 Gi/Go-coupled signaling modulation – cell-based, rat, thallium flux, HTS, primary screen (AID 488969). The conditions noted are these: HEK293 rat mGluR8, GIRK (G protein-gated inwardly rectifying potassium channel) thallium flux, FluoZin2; at 10 µM; stronger effect = higher value; submaximal glutamate (EC20) added with thallium.
Sequence of UniProt P70579 (P70579 whole entry, looked up): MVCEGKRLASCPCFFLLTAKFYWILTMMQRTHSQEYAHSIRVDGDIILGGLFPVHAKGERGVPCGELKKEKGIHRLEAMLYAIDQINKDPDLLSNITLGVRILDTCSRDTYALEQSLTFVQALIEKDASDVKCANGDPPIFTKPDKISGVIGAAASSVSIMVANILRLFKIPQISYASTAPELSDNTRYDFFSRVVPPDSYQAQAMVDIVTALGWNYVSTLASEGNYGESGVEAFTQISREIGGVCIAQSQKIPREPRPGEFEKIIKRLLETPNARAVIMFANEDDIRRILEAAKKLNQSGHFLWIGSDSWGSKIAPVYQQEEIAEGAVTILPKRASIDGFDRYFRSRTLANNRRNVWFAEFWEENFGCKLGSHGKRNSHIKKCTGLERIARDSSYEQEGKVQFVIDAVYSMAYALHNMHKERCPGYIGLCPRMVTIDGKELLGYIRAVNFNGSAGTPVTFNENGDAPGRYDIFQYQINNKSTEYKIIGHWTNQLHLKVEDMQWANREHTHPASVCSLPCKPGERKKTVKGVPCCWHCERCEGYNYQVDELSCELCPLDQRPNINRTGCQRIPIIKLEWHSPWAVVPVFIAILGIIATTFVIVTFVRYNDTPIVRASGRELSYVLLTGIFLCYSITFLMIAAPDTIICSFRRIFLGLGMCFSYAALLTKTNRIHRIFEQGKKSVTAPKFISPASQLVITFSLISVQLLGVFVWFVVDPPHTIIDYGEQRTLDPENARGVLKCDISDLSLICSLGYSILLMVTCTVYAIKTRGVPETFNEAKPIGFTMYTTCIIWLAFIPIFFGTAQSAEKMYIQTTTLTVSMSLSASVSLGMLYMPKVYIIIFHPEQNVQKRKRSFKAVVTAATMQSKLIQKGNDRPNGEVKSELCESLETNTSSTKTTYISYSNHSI
As to `CCN1CCc2c(C#N)c(N3CCOCC3)nc(NCc3ccccc3)c2C1`, the z-score was 0.164. Under `Cc1cc(C)c2nc(NC(=O)[C@@H](NC(=O)c3cccc(S(=O)(=O)N4CCOCC4)c3)C(C)C)sc2c1` stands -0.0566; under `Cc1ccc2nc(SC(C(=O)c3ccccc3)c3ccccc3)nc(C)c2c1` (stereo unspecified), -0.141; under `Cc1nc2ccccc2n1C(=O)c1cc(-c2ccc(Br)cc2)nc2ccccc12`, -0.166. Compound `CC1Cc2nc(SCC(=O)c3ccccc3)n(Cc3ccccc3)c(=O)c2S1` (stereo unspecified) gave a z-score of -0.123. With `CCOC(=O)CNc1c(-c2ccccc2)nc2ccc(Cl)cn12` the figure was -0.241; with `C=CCOc1ccc(/C=N/NC(=O)CN(c2cc(Cl)ccc2OC)S(=O)(=O)c2ccc(C)c([N+](=O)[O-])c2)cc1`, 0.0567. With `Cc1ccc(S(=O)(=O)N2c3ccccc3NC(=O)CC2C)cc1` (stereo unspecified) the figure was -0.22; with `Cc1cccc(N2CCN(C(=O)c3ccoc3C)CC2)c1C`, -0.311; with `CC(C)C1S/C(=N/N=C/c2ccco2)NC1=O` (stereo unspecified), -0.192. Regarding `CCCCSc1nc2ccc(Nc3nc(N4CCOCC4)nc(N4CCOCC4)n3)cc2s1`, the z-score is -0.297.

Take `COCCNC(=O)C1CC(c2ccc(F)cc2)=NO1` (stereo unspecified): the z-score was -0.0424. With `Cc1ccc(C)c(N2CCN(C(=O)C3CCCN(S(=O)(=O)c4c(C)[nH]c(=O)[nH]c4=O)C3)CC2)c1` (stereo unspecified) the figure was -0.243; with `CCNC(=S)N/N=C/c1c(Cl)cccc1Cl`, active: 5.15. Consider `CC1CC(N(C(=O)c2ccccc2Cl)c2ccccc2)c2ccccc2N1` (stereo unspecified), for which the z-score was -0.277. With `Cc1ccc(S(=O)(=O)c2c(N)n(CCC(C)C)c3nc4ccccc4nc23)cc1` the figure was -0.205. Compound `Cc1cc(C)cc(OCc2nnc(SCC(=O)OC(C)C)o2)c1` displayed a z-score of -1.32.

In turn, `Cc1ccccc1NC(=O)NCCN1C(=O)C2C3C=CC(C3)C2C1=O` (stereo unspecified) registered a z-score of 0.682. Regarding `O=C1c2ccccc2C(=O)N1CC(O)COCc1ccccc1` (stereo unspecified), the z-score is -0.538. `Cc1cc(C)c(NC(=O)c2ccoc2C)c(C)c1` displayed a z-score of 0.489.

As for `Cc1cccc(N(CC(=O)N2CCOCC2)S(C)(=O)=O)c1C`, the z-score is 0.189. Under `COC(=O)Cn1cnc2c1c(=O)n(C)c(=O)n2C` stands -0.32; under `O=C(C[n+]1cc(-c2ccc(F)cc2)n2c1CCC2)Nc1nc(-c2ccc(F)cc2)cs1`, 0.552. For `COC1=C(Nc2ccc(C)cc2)C(=O)c2ccccc2C1=O`, the z-score is -0.651.

Consider `COc1ccc(CSc2nc3ccccc3[nH]2)cc1`, for which the z-score amounted to 0.53. Under `Cc1cc(C(=O)OCC(=O)c2ccc(Br)s2)c(C)o1` stands -0.018; under `CC(=O)c1cn(CC(=O)Nc2ccccc2)c2ccccc12`, 0.0362.

On to `CC(C)c1cc(C(=O)Nc2cc(Br)ccc2O)no1`, for which the z-score was -0.161. With `COCCCNc1cc(C)nc2ccccc12` the figure was 0.57. `O=C(O)c1cccc(Nc2nc(-c3cccnc3)nc3ccccc23)c1` showed a z-score of -0.747. In turn, `Cc1cc(C)c2c(n1)nn1c(N3CCN(c4cccc(Cl)c4)CC3)cc(C)nc21` displayed a z-score of -0.292. Under `COc1ccc(CC(=O)Nc2cccc(-c3nnc(-c4ccccc4)o3)c2)cc1OC` stands -0.509; under `O=C(O)c1ccc(CNCc2ccc(Cl)cc2Cl)cc1`, -0.14; under `O=C(Nc1ccc(O)cc1)c1cc2n(n1)C(C(F)(F)F)CC(c1ccco1)N2` (stereo unspecified), 0.91. `COc1ccc(CNC(=O)C2CCN(c3nccs3)CC2)cc1` yielded a z-score of -0.318. Regarding `COc1ccc(S(=O)(=O)NC(CC(=O)NCc2ccco2)c2ccco2)cc1` (stereo unspecified), the z-score is 0.275. `O=C(CN1C(=O)c2cccc3cccc1c23)Nc1ccccc1C(=O)NCc1ccco1`: the z-score stood at 0.291.

For the compound `COCCNC(=O)c1ccccc1NC(=O)CN(c1ccc2c(c1)OCO2)S(C)(=O)=O`, the z-score is 0.501. For `COc1ccccc1/C=N/OCC(=O)NCc1ccc2c(c1)OCO2`, the z-score is -0.0335. With `Cc1cccc(C)c1-n1nnnc1SCSc1nnnn1-c1c(C)cccc1C` the figure was 0.234. With `Cn1c(=O)n(Cc2ccccc2F)c2ccccc21` the figure was -0.668. In turn, `CCC(=O)N1CCc2cc(OC)c(OC)cc2C1COc1ccc(C(=O)OC)cc1` (stereo unspecified) came in with a z-score of -0.946. Consider `CNC(=O)COc1ccc(-c2nn(C)c(=O)c3ccccc23)cc1`, for which the z-score was -0.157. Under `CC(=O)NC(CC(=O)NCC(c1ccco1)N(C)C)c1ccccc1` (stereo unspecified) stands 0.0433. Under `Cc1ccc(C(C)C)c(OCc2nnc(SCC(=O)Nc3ncc(C)s3)n2C)c1` stands 0.524; under `CC1CC(C(F)F)n2nc(C(=O)Nc3sc4c(c3C#N)CCC(C(C)(C)C)C4)nc2N1` (stereo unspecified), 0.092; under `COc1cccc(C(=O)Nc2cc(C(=O)NCCc3ccccc3)ccc2Cl)c1`, -0.18. Under `Cc1cccc(C(=O)c2c(N)sc3c2CCCC3)c1` stands 0.36; under `O=C(NCC(=O)N(c1cccnc1)C(C(=O)NC1CCCCC1)c1cccnc1)c1ccco1` (stereo unspecified), 0.255; under `Cc1ccc(C)c(NC(=O)C2CCC(C)(C(=O)O)C2(C)C)c1` (stereo unspecified), -0.0102. In the case of `CCOC(=O)c1cc2ccc(OC(=O)c3ccco3)cc2oc1=O`, the z-score came to 0.37. Turning to `CCCN(CCC)S(=O)(=O)c1ccc(C(=O)Nc2nnc(-c3cccc(OC)c3)o2)cc1`, the z-score was active: 3.65. Under `O=C(Nc1ccc2c(c1)OCO2)c1ccc2nc[nH]c2c1` stands -0.201; under `CC1(C)CC(=O)C2=C(C1)Nc1nc(SCCN3CCOCC3)[nH]c(=O)c1C2c1cccs1` (stereo unspecified), -1.9; under `Cc1cccc(C)c1N1CCN(c2ccc3nnc(C(F)(F)F)n3n2)CC1`, 0.438. `Cc1cc(C)cc(NC(=O)CCN2CC(C)OC(C)C2)c1` (stereo unspecified) displayed a z-score of -0.154.

As to `CCOCc1cc(C2NC(=O)NC(C)=C2C(=O)OCC)ccc1OC` (stereo unspecified), the z-score is 0.0607. The compound `Cc1ccc2nc(N/C(N)=N/S(=O)(=O)c3ccc([N+](=O)[O-])cc3)nc(C)c2c1` displayed a z-score of -0.127.

`O=C(CCS(=O)(=O)c1ccc(Br)cc1)Nc1ccc(Br)cc1F` yielded a z-score of 0.276.

Turning to `CCOC(=O)C1CCN(Cc2cccc(OC)c2)CC1`, the z-score is -0.192.

The compound `O=C1C(C=NCc2ccccn2)=C(O)c2ccccc21` yielded a z-score of -0.00613. Consider `CCOC(=O)N1CCN(S(=O)(=O)c2cc(-c3nn4c(C)nnc4c4ccccc34)ccc2C)CC1`, for which the z-score was -1.79. With `CCn1c(COc2ccccc2OC)nnc1SCC#N` the figure was -0.326.

With `CCOC(=O)N1CCC(N(C(=O)Nc2ccc(CC)cc2)C(C)CC)CC1` (stereo unspecified), the z-score is 0.168.

`O=C1c2[nH]nc(-c3ccccc3O)c2C(c2ccc(F)cc2)N1Cc1ccco1` (stereo unspecified) displayed a z-score of 0.574.

Consider `CCCCn1c(SCC(=O)OC)nc2c1c(=O)n(C)c(=O)n2C`, for which the z-score is -0.0927. Under `COc1ccc(N2CCN(C(=O)CCn3nnc4ccccc43)CC2)cc1` stands -0.0252; under `CCN(CC)C(=O)CSc1nc2ncccc2[nH]1`, 1.1.

Turning to `O=C(NC(=S)Nc1ccccc1)c1cc(-c2ccccc2)nc2ccccc12`, the z-score was active: 9.35. With `COc1ccc(/C=N/Nc2ccccc2)cc1Cn1nc(C)c([N+](=O)[O-])c1C` the figure was -0.405. `COc1ccc(OC)c(/C=N/NC(=O)CCc2ccc(O)c(O)c2)c1` showed a z-score of -0.298. Under `O=C1c2sc3nc4n(c(=O)c3c2CCC1Br)CCCCC4` (stereo unspecified) stands 0.732; under `O=C(Nc1ccc2c(c1)OCO2)C(c1ccc(Cl)cc1)N1CCN(C(=O)c2ccco2)CC1` (stereo unspecified), -0.396. As to `O=C(c1ccccc1F)N1CCN(S(=O)(=O)c2ccc3c(c2)OCCO3)CC1`, the z-score is -0.0609. `Nn1cnc2c([nH]c3ccccc32)c1=O` had a z-score of -0.365.

On to `Cc1ccccc1OCc1nc(-c2ccc(Br)o2)no1`, for which the z-score turned out to be 0.521.

For `O=C1CN(C(=O)c2ccco2)c2ccccc2N1`, the z-score is -0.372. With `O=C1C2C3C=CC(C3)C2C(=O)N1CN(Cc1ccccc1)CN1C(=O)C2C3C=CC(C3)C2C1=O` (stereo unspecified) the figure was 0.0355; with `O=C(COC(=O)CCCSc1nc2ccccc2[nH]1)Nc1ccc(Oc2ccccc2)cc1`, -0.0806. Under `CCOCC(=O)Nc1cccc(OC)c1` stands 0.0272. Under `CCCCC1CC1C(=O)Nc1ncc2c(n1)CC(C)(C)CC2=O` (stereo unspecified) stands -0.185; under `CCOc1ccc(N(CC(=O)NC2CCCCCC2)S(=O)(=O)c2c(C)noc2C)cc1`, 0.0414; under `COc1ccccc1NS(=O)(=O)c1cccc(NC(=O)c2nc3nc(C)cc(C)n3n2)c1`, -0.0384. In turn, `CCOC(=O)c1ccccc1NC(=O)Cn1cnc2c(cnn2C(C)(C)C)c1=O` registered a z-score of -0.521. In turn, `O=S1(=O)C[C@@H](O)[C@@H](Nc2ccc(Cl)cc2)C1` came in with a z-score of -0.343.

In turn, `O=S(=O)(c1ccc(-c2csc(Nc3ccc(F)cc3)n2)cc1)N1CCCC1` gave a z-score of -0.314.

With `COc1ccccc1CNC(=O)c1cc2c(C)nn(Cc3ccc(F)cc3)c2s1`, the z-score is -0.149.

`Cc1ccc(S(=O)(=O)Cn2nnnc2C(C(C)C)N2CCN(c3nc4ccccc4s3)CC2)cc1` (stereo unspecified) returned a z-score of 0.142. Under `CCOc1ccc(S(=O)(=O)NC(C)(C)C)cc1-c1nc2c(C(C)(C)C)nn(C)c2c(=O)[nH]1` stands -0.387; under `CC(C)=C1SC(N2CCCCC2)=NC1=O`, 1.93. As for `COc1ccc(CN2CCN(C(=O)c3cc(OC)c(OC)c(OC)c3)CC2)cc1OC`, the z-score was -0.587.

`O=C1CC(Sc2nnc(-c3ccccc3)o2)C(=O)N1c1ccccc1` (stereo unspecified): the z-score is -0.0347. With `COc1ccc(C(c2nnnn2Cc2ccccc2)N2CCN(C(=O)c3ccco3)CC2)cc1OC` (stereo unspecified) the figure was -0.161. With `CC(NC(=O)c1cn(C)c2ccc(S(=O)(=O)N3CCCC3)cc2c1=O)c1ccc2c(c1)OCCO2` (stereo unspecified) the figure was -0.479; with `COc1ccc(CC(=O)OCC(=O)Nc2ncc(Cl)cc2Cl)cc1OC`, -0.239. With `Cc1ccc(NC(=O)c2ccc(OC(=O)COc3cccc(Cl)c3)cc2)cc1` the figure was -0.283. `COC(=O)c1ccc(NC(=O)CN2CCCC2)cc1` had a z-score of -0.186. Under `Cc1ccc(S(=O)(=O)Nc2c(C)nn(C)c2C)cc1` stands -0.0387; under `CCOc1ccc(-n2c(=O)cc(N3CCN(c4ccc(F)cc4)CC3)[nH]c2=O)cc1`, 0.293; under `O=C(O)CCC(=O)NC1CCCCC1`, -0.0259. With `Cc1ccc2cc(C(c3nnnn3C3CCCC3)N3CCN(c4ccccc4)CC3)c(=O)[nH]c2c1` (stereo unspecified) the figure was -0.225; with `CC(C)(C)c1nc2ccccc2c2nnc(SCC(=O)Nc3nccs3)n12`, -0.153. For the compound `COc1ccccc1NC(=O)/C(C#N)=C/C=C/c1ccco1`, the z-score was -0.162. Under `O=C(c1nc2nc(-c3ccccc3)cc(C(F)(F)F)n2n1)N1CCOCC1` stands -0.175; under `COc1ccc(OC)c(NC(=O)CC2SC(=Nc3ccc(F)cc3)N(CCC3=CCCCC3)C2=O)c1` (stereo unspecified), 0.0161; under `Cc1cc(C)c(C(=O)Nc2ccc(S(=O)(=O)Nc3onc(C)c3C)cc2)c(C)c1`, 0.0864.
